Results as given in patent US10299477B2 (priority 2015, dated 2019).

How the values were obtained:
Format in all cases: in vivo
Botrytis cinerea = assay: Test Example B: Gray mold on tomato; details: for Test B (control value class, gray mold on tomato): in vivo
From the text: [Test Example B] Gray Mold on Tomato
Seeds of a test plant (tomato variety: Oogata Fukuju) were planted followed by cultivating until three to five first leaves (true leaves) appeared.

Alternaia brassicicola = assay: Test Example C: Alternaria sooty spot on cabbage; details: for Test C (control value class, Alternaria sooty spot on cabbage): in vivo
From the text: [Test Example C] Alternaria Sooty Spot on Cabbage
Seeds of a test plant (cabbage variety: Shikidori) were planted followed by cultivating until the cotyledons extended.

[1] = system: Blumeria graminis f sp. hordei; assay: Test Example D: Powdery mildew on barley; details: for Test D (control value class, powdery mildew on barley): in vivo
From the text: [Test Example D] Powdery Mildew on Barley
After the sprayed dilutions were dried, conidia of Blumeria graminis f sp. hordei were inoculated to the plants by shaking off.

Puccinia recondita = assay: Test Example E: Brown rust on wheat; details: for Test E (control value class, brown rust on wheat): in vivo
From the text: [Test Example E] Brown Rust on Wheat

Plasmopara viticola = assay: Test Example G: Downy mildew on vine; details: for Test G (control value class, downy mildew on vine): 250 ppm, sprayed 2.5 ml/pot before inoculation; for Test G (control value class): 250 ppm spray
From the text: [Test Example G] Downy Mildew on Vine
Seeds of a test plant (grape variety: Neomuscat) were planted followed by cultivating until three to four first leaves appeared. […] After the sprayed dilutions were dried, a zoosporangia suspension (1-2×10^4 zoosporangia/ml) of Plasmopara viticola was inoculated to the plants by spraying.

[2] = evaluated 7-10 days after inoculation
[3] = 250 ppm spray, preventive, control value class
[4] = gray mold on tomato, Botrytis cinerea, 250 ppm spray
[5] = Alternaria sooty spot on cabbage, 250 ppm spray
[6] = powdery mildew on barley, 250 ppm spray
[7] = brown rust on wheat, Puccinia recondita, 250 ppm spray
[8] = downy mildew on vine, Plasmopara viticola, 7-10 days after inoculation
[9] = Gray mold on tomato, control value=100{1-(n/3)}
[10] = Alternaria sooty spot on cabbage, control value=100{1-(n/3)}
[11] = Powdery mildew on barley, control value=100{1-(n/3)}
[12] = Brown rust on wheat, control value=100{1-(n/3)}
[13] = Downy mildew on vine, 2.5 ml/pot, evaluated 7-10 days after inoculation

| SMILES | Test B (control value class, gray mold on tomato) (Botrytis cinerea) | Test C (control value class, Alternaria sooty spot on cabbage) (Alternaia brassicicola) | Test D (control value class, powdery mildew on barley) [1] | Test E (control value class, brown rust on wheat) (Puccinia recondita) | Test G (control value class, downy mildew on vine) (Plasmopara viticola; [2]) | Test B (control value class) (Botrytis cinerea; [4]) | Test C (control value class) (Alternaia brassicicola; [5]) | Test D (control value class) [1, 6] | Test E (control value class) (Puccinia recondita; [7]) | Test G (control value class) (Plasmopara viticola; [8]) | further results |
| --- | --- | --- | --- | --- | --- | --- | --- | --- | --- | --- | --- |
| CCn1c(-c2c(F)cc(OC)cc2F)c(-c2cc(F)cc(F)c2Cl)ccc1=O [Compound 665] | H (H shows more than 50% of control values) | H (H shows more than 50% of control values) | H (H shows more than 50% of control values) | H (H shows more than 50% of control values) | L (L shows 50% or less of control values) |  |  |  |  |  |  |
| CCOc1cc(F)c(-c2c(-c3cccc(OC)c3Cl)cc(Br)c(=O)n2C)c(F)c1 [Compound 670] | H (H shows more than 50% of control values) | H (H shows more than 50% of control values) | L (L shows 50% or less of control values) | H (H shows more than 50% of control values) | H (H shows more than 50% of control values) |  |  |  |  |  |  |
| Cn1c(-c2c(F)cccc2F)c(-c2cc(OCS(C)(=O)=O)ccc2Cl)ccc1=O [Compound 312] |  |  |  |  |  |  |  |  |  |  | Test B control value (gray mold on tomato) (Botrytis cinerea; [3]): H (H shows more than 50% of control values); Test C control value (Alternaria sooty spot on cabbage) (Alternaia brassicicola; [3]): L (L shows 50% or less of control values); Test D control value (powdery mildew on barley) [1, 3]: L (L shows 50% or less of control values); Test E control value (brown rust on wheat) (Puccinia recondita; [3]): H (H shows more than 50% of control values); Test G control value (downy mildew on vine) (Plasmopara viticola; 250 ppm spray (2.5 ml/pot), preventive, 7-10 days after inoculation, control value class): L (L shows 50% or less of control values) |
| COc1cc(F)c(-c2c(-c3cccc(F)c3Cl)cc(Cl)c(=O)n2C)c(F)c1 [Compound 504] |  |  |  |  |  | H (H shows more than 50% of control values) | H (H shows more than 50% of control values) | H (H shows more than 50% of control values) | H (H shows more than 50% of control values) | H (H shows more than 50% of control values) |  |
| CCOc1cc(F)c(-c2c(-c3ccc(F)cc3Cl)ccc(=O)n2C)c(F)c1 [Compound 612] | H (H shows more than 50% of control values) | H (H shows more than 50% of control values) | H (H shows more than 50% of control values) | H (H shows more than 50% of control values) | L (L shows 50% or less of control values) |  |  |  |  |  |  |
| COc1cc(F)c(-c2c(-c3cc(F)ccc3Cl)cc(Cl)c(=O)n2C)c(F)c1 [Compound 761] |  |  |  |  |  |  |  |  |  |  | Test B (control value class) (Botrytis cinerea; [9]): H (H shows more than 50% of control values); Test C (control value class) (Alternaia brassicicola; [10]): H (H shows more than 50% of control values); Test D (control value class) [1, 11]: H (H shows more than 50% of control values); Test E (control value class) (Puccinia recondita; [12]): H (H shows more than 50% of control values); Test G (control value class) (Plasmopara viticola; [13]): L (L shows 50% or less of control values) |
| CCn1c(-c2c(F)cc(F)cc2F)c(-c2cccc(F)c2F)cc(C)c1=O [Compound 609] | H (H shows more than 50% of control values) | H (H shows more than 50% of control values) | H (H shows more than 50% of control values) | H (H shows more than 50% of control values) | L (L shows 50% or less of control values) |  |  |  |  |  |  |
| CCN1C(=O)CCC(c2cc(F)ccc2F)=C1c1c(F)cccc1F [Compound 477] |  |  |  |  |  | H (H shows more than 50% of control values) | H (H shows more than 50% of control values) | H (H shows more than 50% of control values) | H (H shows more than 50% of control values) | L (L shows 50% or less of control values) |  |
| COc1ccc(Cl)c(-c2cc(Cl)c(=O)n(CC#N)c2-c2c(F)cccc2F)c1 [Compound 463] |  |  |  |  |  | H (H shows more than 50% of control values) | H (H shows more than 50% of control values) | H (H shows more than 50% of control values) | H (H shows more than 50% of control values) | H (H shows more than 50% of control values) |  |
| CCN1C(=O)CCC(c2cc(F)cc(F)c2Cl)=C1c1c(F)cc(F)cc1F [Compound 583] | H (H shows more than 50% of control values) | H (H shows more than 50% of control values) | H (H shows more than 50% of control values) | H (H shows more than 50% of control values) | H (H shows more than 50% of control values) |  |  |  |  |  |  |
| CCn1c(-c2c(F)cccc2F)c(-c2cccc(F)c2)cc(Br)c1=O [Compound 155] |  |  |  |  |  |  |  |  |  |  | Test B control value (Botrytis cinerea; Gray mold on tomato): H (H shows more than 50% of control values); Test C control value (Alternaia brassicicola; Alternaria sooty spot on cabbage): H (H shows more than 50% of control values); Test D control value ([1]; Powdery mildew on barley): H (H shows more than 50% of control values); Test E control value (Puccinia recondita; Brown rust on wheat): H (H shows more than 50% of control values); Test G control value (Plasmopara viticola; Downy mildew on vine, 250 ppm sprayed before inoculation, 7-10 days after inoculation): L (L shows 50% or less of control values) |
| Cn1c(-c2c(F)cc(F)cc2F)c(-c2ccccc2Cl)ccc1=O [Compound 431] |  |  |  |  |  | H (H shows more than 50% of control values) | H (H shows more than 50% of control values) | H (H shows more than 50% of control values) | H (H shows more than 50% of control values) | H (H shows more than 50% of control values) |  |
| CCOc1cc(F)c(-c2c(-c3ccccc3Cl)cc(Cl)c(=O)n2C)c(F)c1 [Compound 734] | H (H shows more than 50% of control values) | H (H shows more than 50% of control values) | H (H shows more than 50% of control values) | H (H shows more than 50% of control values) | H (H shows more than 50% of control values) |  |  |  |  |  |  |
| Cc1cc(-c2cccc(F)c2Cl)c(-c2c(F)cccc2F)n(C)c1=O [Compound 754] |  |  |  |  |  |  |  |  |  |  | Test B (control value class) (Botrytis cinerea; [9]): H (H shows more than 50% of control values); Test C (control value class) (Alternaia brassicicola; [10]): H (H shows more than 50% of control values); Test D (control value class) [1, 11]: H (H shows more than 50% of control values); Test E (control value class) (Puccinia recondita; [12]): H (H shows more than 50% of control values); Test G (control value class) (Plasmopara viticola; [13]): L (L shows 50% or less of control values) |
| CCCCn1c(-c2c(F)cccc2F)c(-c2cc(OC)ccc2Cl)ccc1=O [Compound 394] |  |  |  |  |  | L (L shows 50% or less of control values) | L (L shows 50% or less of control values) | H (H shows more than 50% of control values) | H (H shows more than 50% of control values) | H (H shows more than 50% of control values) |  |
| O=c1c(Cl)cc(-c2cc(F)cc(F)c2Cl)c(-c2c(F)cc(F)cc2F)n1CC(F)F [Compound 608] | H (H shows more than 50% of control values) | H (H shows more than 50% of control values) | H (H shows more than 50% of control values) | H (H shows more than 50% of control values) | L (L shows 50% or less of control values) |  |  |  |  |  |  |
